Assay results: the RNAGym collection of RNA variant scans (doi:10.7554/elife.90254)
The source gives no read counts; variants with many changes may rest on few reads.

B1: OR4K15 (parent)
chain: GUUAACGGUCAUAGGCCAUGGAAACUAGGAGCACCAUUUCGCUGCCAGUGAAGAAAUGAACAAAGAAAAUCUGGGCCAGGCAGGCAUCAAAAGAAAUAGUCUUGCGCUCAACCAGAAAGUCUGUAAUCAUUUUAAGGGUA

Variants of: B1
Assay: self-cleavage, relative activity (ratio to wild type); higher = more cleavage; in vitro, sequencing; the parent is a self-cleaving ribozyme

Variant	self-cleavage
A5G U103C U124A	0.47
A13G C40U A55G A64G U102A A116G	0.79
A47G A78G A94G	0.16
A5U A24G A62U U103C A110G	0.38
A52G A54U U87C A92G	0.88
U26C A55G A114U U120C U122C	0.01
A62U U87C U103C	0.94
A51U A60G A66G A69G	1.03
A5G A36C A52G	0.47
C6U U12A U49C	0.36
A66U A82G A96G	0.99
A59G A91G A110G U120C	0.04
A60G A62G G106A	0.03
A54G A96G U100C A111U A140U	0.26
U38C A91U A126G	0.89
A55G A92G C121G	2.17
U9C A91G U122C	1.08
A33G A47C A55G A69G U70A A126G	0.21
A60G A66G A69G	0.83
U2G G20A A96U	1.11
A22G A98G A126C	0.12
U57C C61U U131C	0.77
A66G A69G A78G	0.34
U37C U100C A129G	2.38

Variant	self-cleavage
A54G U72C A78U U87C A116U	0.02
U3C A23U A24C A94G	1.17
A60G U70C A118G	0.39
U9C A11C A23U U38C	1.05
C16U A55G A67G U139A	1.49
U9A A92U U97C U100C U122C U132C	2.04
A62G A90G A135G	0.79
U39A A66G G83A U103C	0.28
U26C U43C A86C A117G	0.6
A11U A36G U38A A66G C85G	0.44
G14U A23U U37C A56G	0.56
A13U U102A U108C	0.02
A18G A33G A68G A82U	0.1
A36G A82C U122C A126G	0.02
A24C U103C U127C	0.84
A24G A60G A116G A126G U127A	0.18
U12A U19C A23G U38C U49A A51U A59U U127C U131C	0.9
A96C U100G U122G	2.22
A24C A66G A67G	0.61
U43C A78G A134C	0.42
U39C A59G U120C A126U	0.4
U38C A47U A90G U102G U108A U131C	0
U100C A116G A134G A135G	0.51
A59G A94G A95G U100C U120C	2.34

Variant	self-cleavage
A18G U38A A118G	1.2
A18G U49C C76U A118U	0.02
A55G C101A U122C A140G	0.06
U12G U38C A62G U130G	1.78
A4G A59U A78G	0.27
A24U U43C A116G	0.57
U3C A67G U131C	0.87
A82U A95G U132C	0.49
G14A C32U A117G U120C A140G	0.89
A22U A89G A129U	0.81
U87C A114U U127C A129U	0.01
G15U A18G U39C A111G U131C	0
A51G U70C A118G	0.23
U2C A18U A54G A66U A78U U100C	0.69
A22G A89G U139C	1.14
A5C A82G A117G	1.35
G20C A62G A78G A116G U127C	0.05
A51G A55G A92G A94G U102C A114U A118G	0.01
U49C A78U A86U A129C U130C	0.07
A69G A78G A90G	0.3
A18G A60U A135G	1.34
G14C C25U A56G U130C	1.31
A22U A62U A90G C109U	0.27
U9C A33G A78G A92G U97C	0.13

Variant	self-cleavage
U49C U70C A89G	0.73
U2C A66G U122G	2.51
U2C G8U A47U A114G	0.3
C81U U97C U139C	0.31
G28A G41A A86G	0.04
U19C U38C U72G U100C	0.31
A33G A86G U87A	0.42
U2C U26C A60G A116G	0.41
G20A U49C U72A A96G U122C	0.2
A67G A90G U103C	1.07
U37C G84U A89G A116G U122C	0.05
A59G A89U U120C A135G	0.49
A52G U103A U127C	0.6
U19C A56G A59G A82U A135G	0.2
C40A A69U U70C A116G	2.01
A47G A54G U132C	1.42
A18G A90G A98G U102A C121A	0.13
A11G A47U U103A	0.44
U2G U100C U133C	0.79
A22G A23G A111G	0
A36U U122C U132C	1.54
A51G A62G U70C A89G C109A U122C	0.03
A52G A86C U87C A90G U108C	0.01
U9C G21U U72A A94G A116G U130A	0

Variant	self-cleavage
A5G A95U U103C A125G	0.13
A59G A60G A111U	0.11
A60G A96G U122C	1.28
A52C A67G A95G	1.87
A36U A59G U72A A92G U100C U122C	0.21
G7U A18U A27U U122G	1.6
U9C A36G U39C C77A A118G	0.92
A11G A56G A110G	0.3
A24G G58A A82U U130C	0.14
A27G A55G U108A	0.02
A5G A33G U97A A116G A118G	0.11
G29U A78G A94G A96G U131C	0.02
A63G G75A A90G A117G	0.13
C46U U72A A92G A117G	0.04
A36G C85U U122C	0.91
U38C A59G A94G	1.78
U2C A13G A33G A95G U100A U103C	0.35
A36G A86U A94C A114G G119A	0.92
A11G A60U A66G U70C	0.42
U2G U12C U103C	0.17
U38A U43C U72C U103G U132A	0.02
A60U A67G U72C C121A	0.49
A23G A54G A60G U70G U122C	0.42
U2C A22G A54G A55G	0.91

Variant	self-cleavage
A30U C32U U139C	1.29
A5G U12C A23G A47U G48A A62G	0.8
A30G A94G U131C A135G	0.53
A5G A23G A47U A96G A114U	0.05
U70A U72C A110G U122A	0.02
U43C A86G U102G U122C	0.18
A59G A78U U132C	0.61
U3C A4G U9C A66G	1.33
G41A A56G A95G	2.04
U37C A55G A111G	0.03
U43A U87C A118G A129G	0.03
U2C U9C A56G A68G	0.55
A36G U37C A56G A126U	1.43
A24G A64G U72A A94G A135U	0.48
A47G A68G A96U	0.92
A22G A24G U102A U108C	0.03
A33G U72A A78U A94U	0.13
U38C A64G A78U A86G A90U	0.11
C6U A96U A129G	1
A11G U57C A78G	0.32
A23G G75A U122C	0.21
A64G U102A U120C	1.06
A60U A116G U130C	0.51
U12C A64G A91G	1.08

Variant	self-cleavage
U39C A82G U87C A117G	0.36
A23G A36G A66G U72C	0.41
A24G U37C A55G A60G U87C A118U	0.48
A24G A86U A114U	0.2
U43C A95G U131G	2.13
A63G A78G A90G	0.16
A36U U37C U43A U100C	2.06
U9C U12A A69U	1.27
U38C A55G A92G A110G A116G	0.04
A30G A55C U120A	1.57
U38A A89G A125G	0.48
A91G A92G U130C	0.54
A47G A51G A60G	1.03
A13G A59U A89G	0.73
A13U A82G A114U	0.03
C35A A54G A60G A66G A69G	0.63
A36U A117G U139C	2.05
U39A A47G A64G U127C	0.56
U70C G75C C85G U108C	0.01
A86G U97C U108A	0.02
A23G G99U A118G	0.52
A59G U72C A82U A98C U130C	0.08
A11G A92G A95G	2.06
